First the molecules themselves.
T1: RBFOX1 RRM RbFoxmut (Fox-RRM*) (Homo sapiens, UniProt Q9NWB1 109-208, R118D;E147R;N151S;E152T)
T1 sequence: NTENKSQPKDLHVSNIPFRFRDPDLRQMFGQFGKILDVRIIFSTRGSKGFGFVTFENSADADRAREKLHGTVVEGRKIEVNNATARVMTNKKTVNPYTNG

B1: CCACGUG (DNA:RNA)
RNA: GGGAGACCGGAAUUCAGAUUGUCCCCACGUGUUAAAUCCCGUCGUAGCCACCA
DNA 1: CAATCTGAATTCCGGTCTCCC
DNA 2: TGGTGGCTACGACGGGATT
B2: GUGCGAC (DNA:RNA)
RNA: B1 RNA with C25G, C26U, A27G, U30A, G31C
DNA 1: CAATCTGAATTCCGGTCTCCC
DNA 2: TGGTGGCTACGACGGGATT
B3: GUUGGUU (DNA:RNA)
RNA: B1 RNA with C25G, C26U, A27U, C28G, G31U
DNA 1: CAATCTGAATTCCGGTCTCCC
DNA 2: TGGTGGCTACGACGGGATT
B4: GCCCCGU (DNA:RNA)
RNA: B1 RNA with C25G, A27C, G29C, U30G, G31U
DNA 1: CAATCTGAATTCCGGTCTCCC
DNA 2: TGGTGGCTACGACGGGATT
B5: AAGAUCG (DNA:RNA)
RNA: B1 RNA with C25A, C26A, A27G, C28A, G29U, U30C
DNA 1: CAATCTGAATTCCGGTCTCCC
DNA 2: TGGTGGCTACGACGGGATT
B6: UUCUGUG (DNA:RNA)
RNA: B1 RNA with C25U, C26U, A27C, C28U
DNA 1: CAATCTGAATTCCGGTCTCCC
DNA 2: TGGTGGCTACGACGGGATT
B7: CCGUACU (DNA:RNA)
RNA: B1 RNA with A27G, C28U, G29A, U30C, G31U
DNA 1: CAATCTGAATTCCGGTCTCCC
DNA 2: TGGTGGCTACGACGGGATT
B8: AUGCUAA (DNA:RNA)
RNA: B1 RNA with C25A, C26U, A27G, G29U, U30A, G31A
DNA 1: CAATCTGAATTCCGGTCTCCC
DNA 2: TGGTGGCTACGACGGGATT
B9: UACAGUU (DNA:RNA)
RNA: B1 RNA with C25U, C26A, A27C, C28A, G31U
DNA 1: CAATCTGAATTCCGGTCTCCC
DNA 2: TGGTGGCTACGACGGGATT
B10: CGUCAUU (DNA:RNA)
RNA: B1 RNA with C26G, A27U, G29A, G31U
DNA 1: CAATCTGAATTCCGGTCTCCC
DNA 2: TGGTGGCTACGACGGGATT
B11: AGUCUCU (DNA:RNA)
RNA: B1 RNA with C25A, C26G, A27U, G29U, U30C, G31U
DNA 1: CAATCTGAATTCCGGTCTCCC
DNA 2: TGGTGGCTACGACGGGATT
B12: CUCGAGG (DNA:RNA)
RNA: B1 RNA with C26U, A27C, C28G, G29A, U30G
DNA 1: CAATCTGAATTCCGGTCTCCC
DNA 2: TGGTGGCTACGACGGGATT
B13: UUCCGUG (DNA:RNA)
RNA: B1 RNA with C25U, C26U, A27C
DNA 1: CAATCTGAATTCCGGTCTCCC
DNA 2: TGGTGGCTACGACGGGATT
B14: GGUUAGA (DNA:RNA)
RNA: GGGAGACCGGAAUUCAGAUUGUCCGGUUAGAUUAAAUCCCGUCGUAGCCACCA
DNA 1: CAATCTGAATTCCGGTCTCCC
DNA 2: TGGTGGCTACGACGGGATT
B15: GCCCGUG (DNA:RNA)
RNA: B1 RNA with C25G, A27C
DNA 1: CAATCTGAATTCCGGTCTCCC
DNA 2: TGGTGGCTACGACGGGATT
B16: CGAGAAC (DNA:RNA)
RNA: B1 RNA with C26G, C28G, G29A, U30A, G31C
DNA 1: CAATCTGAATTCCGGTCTCCC
DNA 2: TGGTGGCTACGACGGGATT
B17: AGCUUUC (DNA:RNA)
RNA: B14 RNA with G25A, U27C, A29U, G30U, A31C
DNA 1: CAATCTGAATTCCGGTCTCCC
DNA 2: TGGTGGCTACGACGGGATT
B18: CUUGCAC (DNA:RNA)
RNA: B1 RNA with C26U, A27U, C28G, G29C, U30A, G31C
DNA 1: CAATCTGAATTCCGGTCTCCC
DNA 2: TGGTGGCTACGACGGGATT
B19: GUUUUUG (DNA:RNA)
RNA: B14 RNA with G26U, A29U, G30U, A31G
DNA 1: CAATCTGAATTCCGGTCTCCC
DNA 2: TGGTGGCTACGACGGGATT
B20: AGGAUCA (DNA:RNA)
RNA: B14 RNA with G25A, U27G, U28A, A29U, G30C
DNA 1: CAATCTGAATTCCGGTCTCCC
DNA 2: TGGTGGCTACGACGGGATT
B21: GCGGAUC (DNA:RNA)
RNA: B1 RNA with C25G, A27G, C28G, G29A, G31C
DNA 1: CAATCTGAATTCCGGTCTCCC
DNA 2: TGGTGGCTACGACGGGATT
B22: GUCGGGA (DNA:RNA)
RNA: B14 RNA with G26U, U27C, U28G, A29G
DNA 1: CAATCTGAATTCCGGTCTCCC
DNA 2: TGGTGGCTACGACGGGATT
B23: CUAAGGU (DNA:RNA)
RNA: B1 RNA with C26U, C28A, U30G, G31U
DNA 1: CAATCTGAATTCCGGTCTCCC
DNA 2: TGGTGGCTACGACGGGATT
B24: UCUAACG (DNA:RNA)
RNA: B1 RNA with C25U, A27U, C28A, G29A, U30C
DNA 1: CAATCTGAATTCCGGTCTCCC
DNA 2: TGGTGGCTACGACGGGATT
B25: CGUCGCG (DNA:RNA)
RNA: B1 RNA with C26G, A27U, U30C
DNA 1: CAATCTGAATTCCGGTCTCCC
DNA 2: TGGTGGCTACGACGGGATT
B26: CAGCUAC (DNA:RNA)
RNA: B1 RNA with C26A, A27G, G29U, U30A, G31C
DNA 1: CAATCTGAATTCCGGTCTCCC
DNA 2: TGGTGGCTACGACGGGATT
B27: CGCGUAU (DNA:RNA)
RNA: B1 RNA with C26G, A27C, C28G, G29U, U30A, G31U
DNA 1: CAATCTGAATTCCGGTCTCCC
DNA 2: TGGTGGCTACGACGGGATT
B28: UGUCGUA (DNA:RNA)
RNA: B1 RNA with C25U, C26G, A27U, G31A
DNA 1: CAATCTGAATTCCGGTCTCCC
DNA 2: TGGTGGCTACGACGGGATT
B29: GUGGAUC (DNA:RNA)
RNA: B14 RNA with G26U, U27G, U28G, G30U, A31C
DNA 1: CAATCTGAATTCCGGTCTCCC
DNA 2: TGGTGGCTACGACGGGATT
B30: CCGUCUU (DNA:RNA)
RNA: B1 RNA with A27G, C28U, G29C, G31U
DNA 1: CAATCTGAATTCCGGTCTCCC
DNA 2: TGGTGGCTACGACGGGATT
B31: AGUUAUA (DNA:RNA)
RNA: B14 RNA with G25A, G30U
DNA 1: CAATCTGAATTCCGGTCTCCC
DNA 2: TGGTGGCTACGACGGGATT

Changes are numbered by the printed parent chain; changes in the protein carry UniProt numbers. This is one part of the list.

In this experiment the target is T1, RBFOX1 RRM RbFoxmut (Fox-RRM*). In words: EMSA; HiTS-Eq, 1 nM pool, 10 min; buffer printed only for the single-RNA assays: 10 mM Tris pH 7.5, 150 mM NaCl, 3.4 mM EDTA, 0.001% NP-40, 30 C. The conditions noted are these: tags: His6 N-terminal (pET28a); label: 5' 32P. The procedure, abridged: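 Relative association constants, normalised to the cognate motif, were derived by comparing read counts of each RNA species with those of the control reaction. The RNA sequenced was the free fraction, separated by 8% native PAGE after a 10 min equilibration in 50 µL of 1 nM 5′-radiolabelled RNA (7 randomized nucleotides) with increasing concentrations of purified wild-type or mutant RbFox RRM.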
In general terms: Mobility shift assays separate free from complexed probe on a gel.
For B1, the binding signal is 0.125 KA relative to UGCAUGU.
The figure for B2 is 0.0808 KA relative to UGCAUGU; for B3 it is 0.115 KA relative to UGCAUGU; for B4 it is 0.1 KA relative to UGCAUGU.
Then B5, with 0.14 KA relative to UGCAUGU; and B6, with 0.133 KA relative to UGCAUGU.
Then B7, with 0.085 KA relative to UGCAUGU; and B8, with 0.166 KA relative to UGCAUGU; and B9, with 0.0607 KA relative to UGCAUGU.
As to B10, the binding signal is 0.0884 KA relative to UGCAUGU.
The figure for B11 is 0.0783 KA relative to UGCAUGU; for B12 it is 0.0887 KA relative to UGCAUGU; for B13 it is 0.0971 KA relative to UGCAUGU.
The figure for B14 is 0.087 KA relative to UGCAUGU; for B15 it is 0.131 KA relative to UGCAUGU.
The figure for B16 is 0.0857 KA relative to UGCAUGU; for B17 it is 0.0646 KA relative to UGCAUGU; for B18 it is 0.0974 KA relative to UGCAUGU.
Consider B19, for which the binding signal was 0.114 KA relative to UGCAUGU.
The figure for B20 is 0.153 KA relative to UGCAUGU.
Then B21, with 0.136 KA relative to UGCAUGU; and B22, with 0.112 KA relative to UGCAUGU.
Then B23, with 0.0965 KA relative to UGCAUGU; and B24, with 0.107 KA relative to UGCAUGU; and B25, with 0.116 KA relative to UGCAUGU.
On to B26, for which the binding signal was 0.108 KA relative to UGCAUGU.
The figure for B27 is 0.121 KA relative to UGCAUGU; for B28 it is 0.13 KA relative to UGCAUGU; for B29 it is 0.357 KA relative to UGCAUGU.
Then B30, with 0.0819 KA relative to UGCAUGU; and B31, with 0.117 KA relative to UGCAUGU.

Source of the values: article PMC9911399, “Two distinct binding modes provide the RNA-binding protein RbFox with extraordinary sequence specificity”.
